Results on 56 sequences are retold here after the supplement of paper PMC11417369.

± gives the standard deviation of the averaged measurements. This is one part of the list.

The experiment has as its system PfAP2-LT AP2 domain (GST-tagged). In words: gcPBM binding intensity (ln(normalized median fluorescence intensity)); higher = stronger DNA binding. In short, it runs like this: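 Binding of GST-tagged P. falciparum DNA-binding domains, expressed in E. coli and used at about 25 μg on average, was carried out for 1 h in 1× PBS containing 1% milk, 0.2 mg/ml BSA, 0.5% salmon testes DNA and 0.03% Triton X-100. The target was an Agilent 4 × 180k array of primer-extended double-stranded 36-bp intergenic genomic probes plus negative controls, read with Alexa488 anti-GST antibody at 488 nm. Binding intensity is the highest Masliner-normalised natural-log median intensity across replicate spots of either probe orientation.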
Turning to ATAAAAAGCTAAAAAGTGCAAAAAGTAAATATTTAA, the “gcPBM binding intensity (ln)” value came out at 8.99 ± 0.61. The result for “TTTTATAAAGAACACAGACACACAAAGAAAGAACCA [CACACA_site4174]” reads 9.2 ± 0.52. The same measure for “ATTCCTCATTAATATTCTTATTTTTTAATTCACATT [XGTACX_negctrl_site329]”: 8.85 ± 0.52; for “TAAAAGGAGACATATACACACATATATATATATATA [CACACA_site5539]”: 10 ± 0.23; for “TTTATTTAAAATAAGTGTACTAGAAAAATTAAGCAG [XGTACX_site4982]”: 8.48 ± 0.42. As for “TGTGATTATGATAAAAGTACAGAAATAAATATACTA [XGTACX_site38]”, the “gcPBM binding intensity (ln)” value came to 8.64 ± 0.5. The result for “CTTAAACTTTTAAATACACACATACAGACATACACA [CACACA_site6401]” reads 9.11 ± 0.26; that for “TACATATATATAATATATATATCATCATATTTTCTT [XGTACX_negctrl_site478]”, 8.73 ± 0.58. The same measure for “TAAAAATGATCAAAGGGTACAGTATTAATTAAAAAA [XGTACX_site1079]”: 8.63 ± 0.54.

For the sequence “TTTACTTTTTTTATATATTATTTATTATATAATATA [CACACA_negctrl_site211]”, the “gcPBM binding intensity (ln)” value turned out to be 8.49 ± 0.5. In the case of “AATATACGATTGTCATTCATACATTGTTAACATAGT [CACACA_negctrl_site1151]”, the “gcPBM binding intensity (ln)” value is 8.89 ± 0.39. As for “ATATACAGAAAAAATTAAAATAAATATGCAAAACAA [CACACA_negctrl_site704]”, the “gcPBM binding intensity (ln)” value worked out at 8.85 ± 0.47. The result for “ACATAGTAAATATTATGTACATAATATATACATTTA [XGTACX_site7500]” reads 8.71 ± 0.36; that for “TACAATGAACATGAAACACACAAAAAAAAAAAAAAA [CACACA_site1544]”, 8.88 ± 0.54. The result for “ATAATAAATACACTAGTGCAAAATAATATATGTACT [GTGCAC_site9707]” reads 9.21 ± 0.4.

Consider “TATTTAGACATAACAAATAGACTAACAAAAGATTTA [GTGCAC_negctrl_site614]”, for which the “gcPBM binding intensity (ln)” value came to 8.54 ± 0.39. “TATTATAAATAAATAGAAAAAAAAATGATAAATGGA [CACACA_negctrl_site865]”: the “gcPBM binding intensity (ln)” value amounted to 8.48 ± 0.53. The same measure for “ATATGTACTATACGCACACACACTCACATATTTATA [CACACA_site7510]”: 9.73 ± 0.25; for “TTTATTTATATAATTACACACATATATACTCAAATG [CACACA_site5543]”: 8.86 ± 0.44; for “ATAGGGTTTCTACTTTAACATTTTTGAAATATTATA [GTGCAC_negctrl_site260]”: 8.43 ± 0.42. As to “AATATATACACATGCGCACACACAAGTGGGAAATTT [CACACA_site8527]”, the “gcPBM binding intensity (ln)” value was found to be 9.57 ± 0.33. The same measure for “ATCACTAATTTTTTTACACACCACAATTTAATTTTT [CACACA_site1186]”: 9.06 ± 0.4; for “AAATGTGTTAATGTGCGTACACATATATATAATATT [XGTACX_site2792]”: 8.97 ± 0.38; for “TTTTGCCTGAACAATGCATGTTATTTTTATTTTTTT [TGCATGCA_site673]”: 8.82 ± 0.38. The result for “TCATTTAAGTCATATTGAAATATGCATTATTCAAAA [CACACA_negctrl_site958]” reads 8.34 ± 0.36; that for “TTTTTTTTTTTTTTTTTTATATTTCATAATTTCATT [XGTACX_negctrl_site579]”, 8.27 ± 0.62.

In the case of “TTTATATTTCATTTGTTATTTTTCTTGGTTCTATAT [TGCATGCA_negctrl_site23]”, the “gcPBM binding intensity (ln)” value stood at 8.85 ± 0.49. Regarding “GCACCAAAAAAAAGACGTACAGTTATATTAAAATAG [XGTACX_site8926]”, the “gcPBM binding intensity (ln)” value is 8.84 ± 0.47. “AAATGAACAAGTGGCACACACACATTCTAACTAATT [CACACA_site3203]”: the “gcPBM binding intensity (ln)” value turned out to be 9.52 ± 0.44. The result for “AACCAAATTTCACCATGTACATATTGATAAATATAT [XGTACX_site1374]” reads 8.82 ± 0.34; that for “ATATGATTTGGATGTAGTACATATTTTTTTATGTTT [XGTACX_site1929]”, 8.8 ± 0.5. The same measure for “ACCTTTAATAAATACACACACATAAAAAAAATATAT [CACACA_site5086]”: 9.37 ± 0.41; for “TAATGTATTATTTAATGTACTTAAAAAATAAATAAA [XGTACX_site3296]”: 8.23 ± 0.47; for “AATGAACAGACGAGCACACACACACCCATATATATA [CACACA_site1018]”: 10.1 ± 0.16. The same measure for “TATTATATGAATAATTGTACGAAATTTAAAAGACAA [XGTACX_site7558]”: 8.58 ± 0.44; for “GGGGAGCTATCTCCTGCACACACAATTTTTTTTTTT [CACACA_site8703]”: 9.1 ± 0.4. On to “CACAAATATATACATACACACATATATACGCATATA [CACACA_site395]”, for which the “gcPBM binding intensity (ln)” value came out at 9.31 ± 0.38. With “TTATAAAGAAAAAATTGCTTTAAAAGAAAGATTACA [CACACA_negctrl_site960]”, the “gcPBM binding intensity (ln)” value was determined as 8.14 ± 0.57. The same measure for “AAAAACAAAATTTGGAGTACAGTTATAATATTATTA [XGTACX_site5245]”: 8.62 ± 0.43; for “ATATATATATGAATCACACACAAAAAATATAGAGAT [CACACA_site3913]”: 9.51 ± 0.41.

As to “AATGAAAAGAAATAATAAATAAATGATGACCAGCTG [GTGCAC_negctrl_site398]”, the “gcPBM binding intensity (ln)” value turned out to be 8.84 ± 0.39. In the case of “TGATTATCCTTCAGGAGTACATATAATATAATATAT [XGTACX_site1479]”, the “gcPBM binding intensity (ln)” value turned out to be 8.8 ± 0.4. For “TATAAACCGACGAAAACACACATATGTAAATATATA [CACACA_site491]”, the “gcPBM binding intensity (ln)” value was 9.22 ± 0.47.

On to “TTTTATGTTTATGTGGTGCATGTTTTGAAGAAAATA [GTGCAC_site9616]”, for which the “gcPBM binding intensity (ln)” value was found to be 8.58 ± 0.3. “AAACCTATGTATATTATACACACTCCAAACTATTAT [CACACA_site8536]”: the “gcPBM binding intensity (ln)” value was found to be 8.96 ± 0.34. For the sequence “ATTACCATATTTTGTACACACATCTTTATCTCAATA [CACACA_site3217]”, the “gcPBM binding intensity (ln)” value stood at 9.28 ± 0.49. The same measure for “TAAAAATTAAAGTGTACACATATATATATATATATA [CACACA_site4781]”: 9.695 ± 0.035.

For “TAAAATAATATATGGTGTACACAAAAGTATAAATAA [XGTACX_site4991]”, the “gcPBM binding intensity (ln)” value is 9.05 ± 0.56.

For the sequence “TATATATATATATTATGTACTCATTTATTATCTTTT [XGTACX_site8051]”, the “gcPBM binding intensity (ln)” value was 9.04 ± 0.43. For the sequence “ATATAAAAAAAATTTAGTACATATATATATATATAT [XGTACX_site8635]”, the “gcPBM binding intensity (ln)” value worked out at 9.33 ± 0.042.

For “AAAAAAATAATTAACACACACATGTATATCTATATA [CACACA_site3139]”, the “gcPBM binding intensity (ln)” value was determined as 9.09 ± 0.37. For the sequence “CGGGGGTAGTTTTATGCACACGTTTATTAATGCTTC [CACACA_site5717]”, the “gcPBM binding intensity (ln)” value was found to be 9.38 ± 0.27.

As to TGAAAAACTATCAGAGTGCATATATAGCTCGATACA, the “gcPBM binding intensity (ln)” value was found to be 8.89 ± 0.45. Take “ACCAATAATATACATACACACATAAATGTTTATATA [CACACA_site4328]”: the “gcPBM binding intensity (ln)” value amounted to 9.06 ± 0.47. The result for “ACATGAATATATACACGTACATATATACATATATAT [XGTACX_site5872]” reads 9.05 ± 0.43; that for “TTATTAAAGGAAAAATGTACATATAAATGAATATGT [XGTACX_site23]”, 8.62 ± 0.5.
